Measured values reported in the supplement of paper PMC3334620.
Over roughly 33,000 sequences, “E-score (-0.5 to 0.5)” has its median near -0.032; the highest 2% begin near 0.36. This is one part of the list.

molecular target: T1, Sko1 (UniProt Q02100); experiment: PBM E-score (8-mer binding enrichment) (E-score (-0.5 to 0.5)); higher = stronger / more preferred TF binding; most listed sequences are background and not binding sites; settings: protein concentration: 200 nM; construct: GST-full length
T1 sequence: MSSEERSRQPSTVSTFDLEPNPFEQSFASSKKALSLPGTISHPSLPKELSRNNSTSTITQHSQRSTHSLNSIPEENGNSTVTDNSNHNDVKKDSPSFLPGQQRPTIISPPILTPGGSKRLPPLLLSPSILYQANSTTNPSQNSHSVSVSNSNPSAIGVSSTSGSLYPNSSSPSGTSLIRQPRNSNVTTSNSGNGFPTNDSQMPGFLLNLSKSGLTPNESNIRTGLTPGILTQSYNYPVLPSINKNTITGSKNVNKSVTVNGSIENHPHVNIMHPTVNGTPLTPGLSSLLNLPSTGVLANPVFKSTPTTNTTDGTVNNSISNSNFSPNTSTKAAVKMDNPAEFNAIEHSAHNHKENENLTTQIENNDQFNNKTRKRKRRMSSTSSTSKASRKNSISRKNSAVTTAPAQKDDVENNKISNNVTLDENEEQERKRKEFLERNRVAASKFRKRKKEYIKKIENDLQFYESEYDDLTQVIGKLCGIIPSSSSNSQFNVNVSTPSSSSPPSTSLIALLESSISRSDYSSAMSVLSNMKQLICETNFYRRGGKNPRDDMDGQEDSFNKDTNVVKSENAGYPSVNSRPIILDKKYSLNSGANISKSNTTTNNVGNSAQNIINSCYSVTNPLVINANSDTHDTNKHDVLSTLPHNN
Outline: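 The E-score, a modified Wilcoxon-Mann-Whitney statistic, was computed by the Universal PBM Analysis Suite for every ungapped eight-base word pooled with its reverse complement. Scans behind it were normalised with masliner after bound GST-tagged yeast transcription factors were detected with fluorescent anti-GST. The proteins, at about 100-200 nM, had been applied to universal all-10-mer Agilent arrays made double-stranded by primer extension.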

Sequence	PBM E-score
CGGTGGCA	-0.114
AGATGTGC	-0.105
AAAACCAT	0.0395
AGCACCAG	-0.12
GCACCACA	-0.156
TAACGAGA	0.238
CCGCCTCC	-0.299
GGAATGCC	-0.15
AACTTACT	-0.0498
ACGCCAGG	0.0709
CCGATGTC	-0.0277
CAGCTAAC	-0.128
TCATCTCA	0.224
ATATCTTA	0.136
ACACTGGG	-0.32
ACCTAGGA	-0.0432
GCCGGCAA	-0.298
CTATTGTA	0.169
AAAGGGAG	-0.215
CGCTTGTA	0.0469
GAGTCACC	-0.279
AATATCGA	0.11
GTTAAGTA	0.228
CTCATATA	0.0195
CGCATCCC	-0.244

Sequence	PBM E-score
GATCCGGC	-0.261
AAACTATT	0.1
CACGGGAG	-0.188
CAGCCGAA	-0.0357
ACGGGCCT	-0.258
CGCCGGTA	-0.0438
CGCGAAAC	-0.0152
AGCGCAGA	-0.293
CGTACGTA	0.474
GCATTCCA	-0.00917
AAAACTAA	0.272
ATGGTGAA	0.0155
CTGATGCA	0.0938
ATGAATCC	-0.0396
ATCTTTAG	0.016
CGTCCTGC	-0.136
CGATGACC	0.0462
ACAGCGAT	-0.248
TATACGCA	0.411
CCACTCGG	-0.298
AGTCGCGC	-0.129
CCGATGAC	0.312
ATTCCGCC	-0.176
CAAACAGA	-0.157
ACCAATTC	0.00776

Sequence	PBM E-score
CGGCTCCA	-0.318
CATGTTGC	0.00941
CCAGTGCG	-0.259
ATCTAGGA	0.0999
ATGATAAG	0.141
AATAAGGT	-0.046
ACAAGCGT	0.054
ACCACTTA	0.149
GCAGGAGA	-0.286
CAGGTCGG	-0.247
GACCCAGC	-0.227
CTTATTGA	0.0844
CTATCCGC	0.0796
ATACTACG	0.288
AGCGGGCG	-0.15
CAGCCATC	0.0411
GCGTCTAC	0.119
ACCCGTAT	-0.0929
AGATTCTA	0.103
AATTAAAC	0.199
CAAAGTAC	0.174
CACGAATA	0.265
GCAAGGAA	-0.176
AGGCTTAG	-0.178
ACTACCAT	0.0147

Sequence	PBM E-score
ACTAGGGA	-0.155
TAGTAATA	0.264
AGATGGGC	-0.273
AAGCTTAT	0.073
AAGAGACT	-0.13
CCATTCGG	-0.0613
AACAACAC	0.101
CTCGGTAA	-0.0649
AGATATCT	-0.164
ACCGATAT	-0.0781
CGAAACCA	0.225
CATCAATA	0.271
AACATTAC	0.299
ACAAACGC	0.0797
CGAACCCG	-0.266
CAATAGGA	0.00627
ACGCCGAA	-0.0716
ACACCAAT	0.095
CCTCCGGC	-0.312
ACCAGGAT	-0.00173
TCCTGACA	0.0551
CTATATGA	0.159
CCTCTACG	0.109
GCAGATCA	-0.182
CAAGTGCA	-0.0677

Sequence	PBM E-score
ATCGTATA	0.197
AATTACAC	0.0946
ATTATAGG	-0.0444
AAACCAAC	-0.0775
ACTGACCA	-0.216
ATGGCGGC	-0.261
TAATCAAA	0.147
GCAATTAC	0.258
AAACCTAT	0.138
CAATAAGG	-0.0753
AGGCAACA	-0.173
GGGCGGTA	-0.282
AGGCGGAA	-0.0647
TCGCACAA	0.0887
ATACATTG	0.139
ATGTAGGC	-0.0584
CGAATTAG	0.0848
GCGGACTA	-0.0398
GGGTATAC	-0.026
CACCTTCG	-0.136
TCGCTGAA	0.034
CTACTTCA	-0.0541
CGCACCAC	-0.0199
ATAAGTGG	0.0758
AACGTGCG	0.211

Sequence	PBM E-score
ATTCAGGC	-0.127
CCAACCCA	-0.283
ACGACCAT	-0.105
CCACGGTC	-0.372
GGCGCTAC	-0.0282
AAAGGCGA	0.0163
CGGATCGA	-0.183
ACACGGTG	-0.16
GTGCATCA	0.239
AGAGCGTC	0.122
GGCAGCTA	0.105
AGGTCAAT	0.0656
CTATATAA	0.123
CAGCCAAC	0.0493
CGGACCCA	-0.229
CAGAACTG	0.0639
AATATTCT	-0.0383
AGCGGTAT	0.0486
AAGGCAGG	-0.239
AACGTGAG	0.135
GGTTGAGA	-0.129
ACTGTACA	0.103
TAAAAAAA	0.179
CGCCGACA	-0.00963
CACGCCGC	-0.202

Sequence	PBM E-score
AGCGTGTC	-0.0386
TATCTGGA	-0.215
ACTTCTAC	0.109
ACGGCTTG	-0.115
CGGTGTGC	-0.164
ATTCCTAG	-0.0629
AACCTGAT	0.0435
AATACTGT	0.07
CACCGGCG	-0.183
GGCAGAGA	-0.0283
CCAGCTTA	-0.0305
AATATAAG	0.241
TGACGCAA	0.483
AACTGCAT	0.134
CAATCCTC	-0.125
CGGCCATC	-0.325
ACGAATCA	0.212
AATATGCT	0.185
AGTGGGGG	-0.374
AGAAGTTG	-0.182
TAATGTGA	0.282
ATGGAGCC	-0.24
